{"source": "PubChem BioAssay AID463173", "about": "(ICCB-Longwood Screening Facility, Harvard Medical School, 2010)", "note": "Hit rate of the full screen: of about 52,000 compounds, about 1,700 (3.3%) were called active. Rule as the data show it: active = survival mostly below about 52% (no sharp cut-off); inactive = mostly above about 56%. The list shows a part of the results.", "data": [{"tested_on": "Wild type", "experiment": "growth inhibition of S. aureus wild type versus tarO mutant, primary screen, teichoic acid synthesis inhibitors, RN4220, OD600 (AID 463173)", "conditions": "S. aureus RN4220 wild type/DeltatarO growth, OD600, 18 h, hits give low values, screened at 18.75 µg/mL (by protocol)", "values": [{"smiles": "CCOc1ccc(-n2c(=O)c3c(C)c(C(=O)N(C)C)sc3n(CC(=O)Nc3c(C)cc(C)cc3C)c2=O)cc1", "survival": "inactive: 68%"}, {"smiles": "Cc1cccc(NC(=O)CSc2nc3c([nH]c4ccccc43)c(=O)n2C)c1", "survival": "inactive: 67%"}, {"smiles": "COc1ccc(OCc2nnc(-c3ccccc3)o2)cc1", "survival": "inactive: 106%"}, {"smiles": "CC(=O)Nc1ccc(C(=O)CSc2ncn(-c3ccccc3)n2)cc1", "survival": "inactive: 112%"}, {"smiles": "COc1ccc(S(=O)(=O)Nc2cc(-c3cn4ccccc4n3)ccc2C)cc1", "survival": "inactive: 117%"}, {"smiles": "Cn1nnc2c(N3CCN(c4ccccc4)CC3)ncnc21", "survival": "inactive: 88%"}, {"smiles": "COCCn1c(SCC(=O)c2ccc(C)cc2C)nc2cc(C(=O)NC3CCCC3)ccc2c1=O", "survival": "inactive: 131%"}, {"smiles": "Cc1cc2ccccc2n1CCNC(=O)c1cc(C(F)(F)F)cc(C(F)(F)F)c1", "survival": "inactive: 139%"}, {"smiles": "CC(C)COc1ccc(C2=NC(c3ccncc3)=Nc3ccc(F)cc3N2)cc1", "survival": "inactive: 112%"}, {"smiles": "O=C(Nc1cccc(OC(=O)c2ccco2)c1)c1ccccc1", "survival": "inactive: 107%"}, {"smiles": "CCOc1ccc(N(CC)S(=O)(=O)N2CCCC(C(=O)Nc3cc(Cl)ccc3C)C2)cc1", "note": "(stereo unspecified)", "survival": "inactive: 79%"}, {"smiles": "CN1CCN(C(=O)Cn2c(-c3cccs3)cc3cc(Cl)ccc32)CC1", "survival": "inactive: 125%"}, {"smiles": "Cc1ccc(Cl)cc1N1CCN(C(=O)C2CCN(S(=O)(=O)c3cccc4nonc34)CC2)CC1", "survival": "inactive: 115%"}, {"smiles": "Cc1ccccc1OC(=O)CSc1nnc(-c2ccc3c(c2)OCO3)o1", "survival": "inactive: 116%"}, {"smiles": "COC(=O)c1cc(NC(=O)c2nn(C)c3c2CSc2ccccc2-3)cc(C(=O)OC)c1", "survival": "inactive: 88%"}, {"smiles": "CC(C)c1ccc(NC(=O)c2cc(S(=O)(=O)N3CCCCC3)cn2C)cc1", "survival": "inactive: 101%"}, {"smiles": "COc1ccccc1CNc1nc2ccc(Cl)cc2n2cnnc12", "survival": "inactive: 123%"}, {"smiles": "O=C(c1noc2c1CCCCC2)N1CCN(c2cccc(C(F)(F)F)c2)CC1", "survival": "active: -3%"}, {"smiles": "CCOc1ccc(-c2cc3c(=O)n(Cc4nc(-c5ccc(OC(C)C)cc5)oc4C)ccn3n2)cc1Cl", "survival": "inactive: 146%"}, {"smiles": "CCCCN(CC)CCCNC(=O)Cn1ncc2c3ccccc3n(Cc3ccccc3F)c2c1=O", "survival": "inactive: 89%"}, {"smiles": "CC(C)(C)c1ccc(C(=O)N2CCC(c3nc(-c4ccc(S(=O)(=O)N5CCCC5)cc4)no3)CC2)cc1", "survival": "inactive: 82%"}, {"smiles": "CCN(CC)CCNC(=O)c1ccc(CSc2nc3ccncc3n2Cc2cccc(F)c2)cc1", "survival": "inactive: 87%"}, {"smiles": "Cc1ccc(-c2n[nH]c3c2C(c2cccc(O)c2)N(c2ccc(C(=O)O)cc2)C3=O)cc1", "note": "(stereo unspecified)", "survival": "inactive: 98%"}, {"smiles": "COc1ccc(CNC(=O)C2CCCN(C(=O)N3CCOc4ccccc43)C2)cc1", "note": "(stereo unspecified)", "survival": "inactive: 110%"}, {"smiles": "COc1cc(C2SC[C@H]3C(=O)N(c4ccccc4)C(=O)N23)cc(OC)c1OC", "note": "(stereo partly specified)", "survival": "inactive: 72%"}, {"smiles": "O=C(Cn1nc(N2CCN(c3ccccc3)CC2)ccc1=O)Nc1ccc(F)cc1F", "survival": "inactive: 81%"}, {"smiles": "C/C=C/C(=O)Nc1nc2ccc(OC)cc2s1", "survival": "inactive: 111%"}, {"smiles": "Cc1ccccc1-c1nc(CN2CCC(C(=O)NCCc3ccccc3)CC2)c(C)o1", "survival": "inactive: 85%"}, {"smiles": "O=C(CCCn1c(=O)c2ccccc2n(CC(=O)Nc2cccc(C(F)(F)F)c2)c1=O)NCc1ccc2c(c1)OCO2", "survival": "inactive: 108%"}, {"smiles": "CCCc1cc(=O)[nH]c2nnc(SCC(=O)Nc3ccc(OC)cc3)n12", "survival": "inactive: 138%"}, {"smiles": "CCCCCc1c(O)c2ccccc2[nH]c1=O", "survival": "inactive: 110%"}, {"smiles": "O=C(Nc1ccccc1C(=O)OCc1cc(=O)n2ccsc2n1)c1ccc(Cl)cc1", "survival": "inactive: 67%"}, {"smiles": "O=C(COCc1cc(-c2ccc(F)cc2)on1)Nc1cccc(Cl)c1Cl", "survival": "inactive: 64%"}, {"smiles": "O=C(NCc1cccn1Cc1ccccc1)Nc1ccc(Br)cc1F", "survival": "inactive: 87%"}, {"smiles": "COc1cccc(N2CCN(c3ncnc4c3c(-c3ccccc3)cn4-c3ccc(C)cc3)CC2)c1", "survival": "inactive: 125%"}, {"smiles": "Cc1ccc(S(=O)(=O)c2nnn3c2nc(NC(C)c2ccccc2)c2sccc23)cc1", "note": "(stereo unspecified)", "survival": "inactive: 97%"}, {"smiles": "CCOc1ccc(N2CC(NC(=O)c3ccc(S(=O)(=O)N4CCCC4)cc3)CC2=O)cc1", "note": "(stereo unspecified)", "survival": "inactive: 68%"}, {"smiles": "COc1ccccc1CNC(=O)CCNS(=O)(=O)c1ccc2c(c1)CCCC(=O)N2", "survival": "inactive: 75%"}, {"smiles": "CCN(CC)S(=O)(=O)c1ccc2c(c1)nc(CN(C)C(=O)Nc1ccc(Cl)cc1)n2C", "survival": "inactive: 81%"}, {"smiles": "CCOC(=O)c1c(C)[nH]c(C)c1S(=O)(=O)NCC(=O)NCc1ccc(C)cc1", "survival": "inactive: 87%"}, {"smiles": "Cc1ccc(Cl)cc1NC(=O)Nc1nnc(N2CCCC(C)C2)s1", "note": "(stereo unspecified)", "survival": "inactive: 88%"}, {"smiles": "Cc1ccc(NC(=O)CNC(=O)Cn2c(C)cc3ccccc3c2=O)cc1F", "survival": "inactive: 61%"}, {"smiles": "O=C(Cn1c(=O)n(Cc2ccc(Cl)cc2)c(=O)c2cccnc21)Nc1ccccc1C(F)(F)F", "survival": "inactive: 78%"}, {"smiles": "Cc1ccc([N+](=O)[O-])cc1S(=O)(=O)N1CCn2cccc2C1c1ccccc1F", "note": "(stereo unspecified)", "survival": "inactive: 71%"}, {"smiles": "O=C(NCc1cccn1Cc1ccccc1)Nc1cccc(C(F)(F)F)c1", "survival": "inactive: 53%"}, {"smiles": "CC(C)C(=O)c1cn(CC(=O)NCC2CCCO2)c2ccccc12", "note": "(stereo unspecified)", "survival": "inactive: 108%"}, {"smiles": "CCOC(=O)c1c(C)c(-c2ccccc2)n(CC(=O)NCc2cccc(OC)c2)c1C", "survival": "inactive: 90%"}, {"smiles": "Cn1c(=O)oc2cc(S(=O)(=O)N3CCC(C(=O)NCc4ccccc4)CC3)ccc21", "survival": "inactive: 89%"}, {"smiles": "Cc1ccc(-n2nc3c(=O)n(CCCC(=O)NCc4ccccc4C)nc(C)c3c2C)cc1", "survival": "inactive: 128%"}, {"smiles": "COCCNC(=O)c1c(-c2ccccc2)c(-c2ccccc2)nn(C)c1=O", "survival": "inactive: 115%"}, {"smiles": "CCOC(=O)c1c(SCC(=O)Nc2nc3ccccc3s2)nc(=O)[nH]c1C", "survival": "active: 1%"}, {"smiles": "CCC(Sc1nnc(C)n2c1cc1sccc12)C(=O)Nc1ccccc1F", "note": "(stereo unspecified)", "survival": "inactive: 79%"}, {"smiles": "Cc1ccc(F)cc1NC(=O)CCc1c(C)nn(-c2ccc(N3CCCC3)nn2)c1C", "survival": "inactive: 70%"}, {"smiles": "Cc1cccc(-c2nc3scc(CCNS(=O)(=O)c4c(C)noc4C)n3n2)c1", "survival": "inactive: 80%"}, {"smiles": "CCCCC(=O)Oc1ccc2oc(-c3ccc(OC)cc3)cc(=O)c2c1", "survival": "inactive: 69%"}, {"smiles": "Cc1cc(=S)[nH]c2ccccc12", "survival": "inactive: 83%"}]}]}
